Source: the supplement of paper PMC8948288
Shown are siRNA guide strands that differ only in the seed, positions 2 to 7.

Key:
[1] = tested on: GL261; test: cell viability relative to siNT1 (ATP content); H4 human neuroglioma and GL261 mouse glioma; higher = less toxic; settings: siRNA concentration 25 nM; 96 h; mouse
[2] = tested on: H4; test: as above; settings: siRNA concentration 10 nM; 96 h; human
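Note: cells reverse transfected with siRNA duplexes via lipid reagent, ATP read by luminescence, triplicate wells, values scaled to mean viability with non-targeting control siNT1.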

| Sequence | cell viability [1] | cell viability [2] |
| --- | --- | --- |
| UGAGGCAACAUGUAAACCA | 10.2% | 42.7% |
| UGAGGCCACAUGUAAACCA | 5.44% | 14.6% |
| UGAGGCGACAUGUAAACCA | 17.4% | 70.6% |
| UGAGGCUACAUGUAAACCA | 6.23% | 32.8% |
| UGAGGGAACAUGUAAACCA | 27.5% | 48.1% |
| UGAGGGCACAUGUAAACCA | 13% | 18.8% |
| UGAGGGGACAUGUAAACCA | 11.8% | 23% |
| UGAGGGUACAUGUAAACCA | 17.8% | 10.4% |
| UGAGGUAACAUGUAAACCA | 41.7% | 69.3% |
| UGAGGUCACAUGUAAACCA | 12.9% | 20.6% |
| UGAGGUGACAUGUAAACCA | 27.6% | 63.3% |
| UGAGGUUACAUGUAAACCA | 26.2% | 55.4% |
| UGAGUAAACAUGUAAACCA | 60.3% | 108% |
| UGAGUACACAUGUAAACCA | 26.8% | 78.9% |
| UGAGUAGACAUGUAAACCA | 27.4% | 57.9% |
| UGAGUAUACAUGUAAACCA | 48.2% | 81.6% |
| UGAGUCAACAUGUAAACCA | 35.5% | 63.5% |
| UGAGUCCACAUGUAAACCA | 3.1% | 30% |
| UGAGUCGACAUGUAAACCA | 44.8% | 86.7% |
| UGAGUCUACAUGUAAACCA | 24.6% | 67.6% |
| UGAGUGAACAUGUAAACCA | 50.5% | 72.7% |
| UGAGUGCACAUGUAAACCA | 53.7% | 76.1% |
| UGAGUGGACAUGUAAACCA | 13.6% | 33.3% |
| UGAGUGUACAUGUAAACCA | 21.2% | 89.3% |

| Sequence | cell viability [1] | cell viability [2] |
| --- | --- | --- |
| UGAGUUAACAUGUAAACCA | 36.3% | 110% |
| UGAGUUCACAUGUAAACCA | 19.9% | 62.6% |
| UGAGUUGACAUGUAAACCA | 39% | 63.6% |
| UGAGUUUACAUGUAAACCA | 22.5% | 83.8% |
| UGAUAAAACAUGUAAACCA | 39.4% | 88.6% |
| UGAUAACACAUGUAAACCA | 17% | 81.1% |
| UGAUAAGACAUGUAAACCA | 24% | 60.4% |
| UGAUAAUACAUGUAAACCA | 31.9% | 56.7% |
| UGAUACAACAUGUAAACCA | 25.5% | 91.2% |
| UGAUACCACAUGUAAACCA | 14.7% | 17.9% |
| UGAUACGACAUGUAAACCA | 18.5% | 110% |
| UGAUACUACAUGUAAACCA | 13.7% | 68% |
| UGAUAGAACAUGUAAACCA | 17.9% | 63.9% |
| UGAUAGCACAUGUAAACCA | 6.25% | 29.8% |
| UGAUAGGACAUGUAAACCA | 23.3% | 80.4% |
| UGAUAGUACAUGUAAACCA | 10.2% | 59.8% |
| UGAUAUAACAUGUAAACCA | 46% | 96.1% |
| UGAUAUCACAUGUAAACCA | 32.8% | 50.3% |
| UGAUAUGACAUGUAAACCA | 41% | 74.5% |
| UGAUAUUACAUGUAAACCA | 23.2% | 67% |
| UGAUCAAACAUGUAAACCA | 55.5% | 71.2% |
| UGAUCACACAUGUAAACCA | 17.3% | 53.6% |
| UGAUCAGACAUGUAAACCA | 38.2% | 56.8% |
| UGAUCAUACAUGUAAACCA | 41.5% | 64.3% |

| Sequence | cell viability [1] | cell viability [2] |
| --- | --- | --- |
| UGAUCCAACAUGUAAACCA | 27.3% | 71.6% |
| UGAUCCCACAUGUAAACCA | 29.7% | 65.2% |
| UGAUCCGACAUGUAAACCA | 20.1% | 87.3% |
| UGAUCCUACAUGUAAACCA | 10.1% | 42.6% |
| UGAUCGAACAUGUAAACCA | 51.8% | 65.2% |
| UGAUCGCACAUGUAAACCA | 17.6% | 62.5% |
| UGAUCGGACAUGUAAACCA | 17.3% | 63.7% |
| UGAUCGUACAUGUAAACCA | 22.5% | 74.7% |
| UGAUCUAACAUGUAAACCA | 52.6% | 77.4% |
| UGAUCUCACAUGUAAACCA | 32.1% | 66% |
| UGAUCUGACAUGUAAACCA | 49.1% | 74% |
| UGAUCUUACAUGUAAACCA | 67% | 61.8% |
| UGAUGAAACAUGUAAACCA | 25.1% | 104% |
| UGAUGACACAUGUAAACCA | 13.2% | 46% |
| UGAUGAGACAUGUAAACCA | 17.2% | 75.4% |
| UGAUGAUACAUGUAAACCA | 12.6% | 54.9% |
| UGAUGCAACAUGUAAACCA | 18.7% | 38.7% |
| UGAUGCCACAUGUAAACCA | 17.2% | 6.29% |
| UGAUGCGACAUGUAAACCA | 11.3% | 78.7% |
| UGAUGCUACAUGUAAACCA | 6.52% | 13.3% |
| UGAUGGAACAUGUAAACCA | 22.9% | 64.9% |
| UGAUGGCACAUGUAAACCA | 14% | 13.3% |
| UGAUGGGACAUGUAAACCA | 14.4% | 42.3% |
| UGAUGGUACAUGUAAACCA | 18.3% | 39.9% |

| Sequence | cell viability [1] | cell viability [2] |
| --- | --- | --- |
| UGAUGUAACAUGUAAACCA | 61.7% | 96.6% |
| UGAUGUCACAUGUAAACCA | 40.3% | 53.9% |
| UGAUGUGACAUGUAAACCA | 46% | 87.7% |
| UGAUGUUACAUGUAAACCA | 35.1% | 74.6% |
| UGAUUAAACAUGUAAACCA | 44.4% | 91% |
| UGAUUACACAUGUAAACCA | 34.3% | 63.4% |
| UGAUUAGACAUGUAAACCA | 59.9% | 80.1% |
| UGAUUAUACAUGUAAACCA | 27.5% | 68.1% |
| UGAUUCAACAUGUAAACCA | 45% | 53.6% |
| UGAUUCCACAUGUAAACCA | 22.3% | 44.9% |
| UGAUUCGACAUGUAAACCA | 23.6% | 55.1% |
| UGAUUCUACAUGUAAACCA | 20.6% | 51.8% |
| UGAUUGAACAUGUAAACCA | 59.8% | 97.5% |
| UGAUUGCACAUGUAAACCA | 32.5% | 39.7% |
| UGAUUGGACAUGUAAACCA | 49.3% | 63.7% |
| UGAUUGUACAUGUAAACCA | 70.8% | 75.4% |
| UGAUUUAACAUGUAAACCA | 46.8% | 63.4% |
| UGAUUUCACAUGUAAACCA | 28.6% | 48.7% |
| UGAUUUGACAUGUAAACCA | 31.6% | 69.4% |
| UGAUUUUACAUGUAAACCA | 35% | 49.3% |
| UGCAAAAACAUGUAAACCA | 56.1% | 118% |
| UGCAAACACAUGUAAACCA | 44.9% | 89.2% |
| UGCAAAGACAUGUAAACCA | 58.3% | 88.2% |
| UGCAAAUACAUGUAAACCA | 55.5% | 75.5% |

| Sequence | cell viability [1] | cell viability [2] |
| --- | --- | --- |
| UGCAACAACAUGUAAACCA | 51.2% | 85.8% |
| UGCAACCACAUGUAAACCA | 28.6% | 58.9% |
| UGCAACGACAUGUAAACCA | 61.5% | 95.1% |
| UGCAACUACAUGUAAACCA | 37.9% | 59.9% |
| UGCAAGAACAUGUAAACCA | 62.6% | 84.8% |
| UGCAAGCACAUGUAAACCA | 19.7% | 81.4% |
| UGCAAGGACAUGUAAACCA | 37.3% | 59.8% |
| UGCAAGUACAUGUAAACCA | 45.7% | 85.3% |
| UGCAAUAACAUGUAAACCA | 110% | 121% |
| UGCAAUCACAUGUAAACCA | 52.2% | 56% |
| UGCAAUGACAUGUAAACCA | 78.2% | 85.3% |
| UGCAAUUACAUGUAAACCA | 46.3% | 57.7% |
| UGCACAAACAUGUAAACCA | 55% | 100% |
| UGCACACACAUGUAAACCA | 27.7% | 54.8% |
| UGCACAGACAUGUAAACCA | 32.1% | 64.6% |
| UGCACAUACAUGUAAACCA | 44.3% | 88.5% |
| UGCACCAACAUGUAAACCA | 27.4% | 65% |
| UGCACCCACAUGUAAACCA | 23.5% | 31% |
| UGCACCGACAUGUAAACCA | 24.7% | 61.6% |
| UGCACCUACAUGUAAACCA | 39.6% | 67% |
| UGCACGAACAUGUAAACCA | 46.9% | 84.5% |
| UGCACGCACAUGUAAACCA | 30.7% | 49.9% |
